Data reported in the supplement of paper PMC4967469.
pIC50: −log10 of the molar value. A lower IC50 marks a more sensitive line; fits outside the tested doses are given as limits. AUC sums up the same curve from the lowest dose to the 256-fold higher top dose; the more sensitive the line, the further below 1. For some assays here: The top dose, if marked as inferred, was derived from the fitted curves, not read from the paper. For some assays here: Where an entry number is given, a second screen of the drug exists; the two often differ.

Legend:
Assay in all cases: Viability of human cancer cell lines after 72 h of drug (GDSC screen)
ABT-869 = compound: Cc1ccc(F)c(NC(=O)Nc2ccc(-c3cccc4[nH]nc(N)c34)cc2)c1 [ABT-869]; details: top dose 1.024 µM; top dose inferred
Description: (§1)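 Human cancer cell lines in 384-well plates, medium with 10% serum, drug for 72 h over a 256-fold dose range (nine 2-fold or five 4-fold steps up to the top dose). Adherent lines were fixed and stained with the nucleic acid dye Syto60, suspension lines read with resazurin; signal relative to control wells, capped at 0 and 100%. One two-parameter sigmoid per drug and line, fitted in a mixed model over all curves with the slope shared within a line.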

Thapsigargin = compound: C/C=C(/C)C(=O)O[C@H]1C(C)=C2[C@H]([C@@H]1OC(=O)CCCCCCC)[C@@](C)(OC(C)=O)C[C@H](OC(=O)CCC)[C@@]1(O)[C@H]2OC(=O)[C@@]1(C)O [Thapsigargin]; details: top dose 0.512 µM; top dose inferred
Description: as §1

ABT-888 = compound: C[C@]1(c2nc3c(C(N)=O)cccc3[nH]2)CCCN1 [ABT-888]; details: top dose 5 µM; top dose inferred
Description: as §1

Cytarabine = compound: Nc1ccn([C@@H]2O[C@H](CO)[C@@H](O)[C@@H]2O)c(=O)n1 [Cytarabine]; details: top dose 2 µM
Description: as §1

Zibotentan = compound: COc1nc(C)cnc1NS(=O)(=O)c1cccnc1-c1ccc(-c2nnco2)cc1 [Zibotentan]; details: top dose 20 µM; top dose inferred
Description: as §1

GSK269962A = compound: CCn1c(-c2nonc2N)nc2cnc(Oc3cccc(NC(=O)c4ccc(OCCN5CCOCC5)cc4)c3)cc21 [GSK269962A]; details: top dose 5 µM; screen: GDSC drug entry 1192; top dose inferred
Description: as §1

(5Z)-7-Oxozeaenol = compound: COc1cc(O)c2c(c1)/C=C/C[C@H](O)[C@H](O)C(=O)/C=C\C[C@H](C)OC2=O [(5Z)-7-Oxozeaenol]; details: top dose 10 µM; top dose inferred
Description: as §1

MPS-1-IN-1 = compound: COc1cc(N2CCC(O)CC2)ccc1Nc1cc(Nc2ccccc2S(=O)(=O)C(C)C)c2cc[nH]c2n1 [MPS-1-IN-1]; details: top dose 20 µM; top dose inferred
Description: as §1

CHIR-99021 = compound: Cc1cnc(-c2cnc(NCCNc3ccc(C#N)cn3)nc2-c2ccc(Cl)cc2Cl)[nH]1 [CHIR-99021]
Description: as §1

KU-55933 = compound: O=c1cc(-c2cccc3c2Sc2ccccc2S3)oc(N2CCOCC2)c1 [KU-55933]; details: top dose 10 µM
Description: as §1

QL-X-138 = compound: C=CC(=O)Nc1cc(-n2c(=O)ccc3cnc4ccc(-c5cn[nH]c5)cc4c32)ccc1C [QL-X-138]; details: top dose 10.24 µM; top dose inferred
Description: as §1

CP466722 = compound: COc1cc2ncnc(-n3nc(-c4ccccn4)nc3N)c2cc1OC [CP466722]; details: top dose 16 µM; top dose inferred
Description: as §1

[1] = top dose 2.56 µM, screen: GDSC drug entry 154
[2] = top dose 10 µM, screen: GDSC drug entry 1241, top dose inferred

Cell Line | AUC (ABT-869) | pIC50 (ABT-869) | AUC (Thapsigargin) | pIC50 (Thapsigargin) | AUC (ABT-888) | pIC50 (ABT-888) | AUC (Cytarabine) | pIC50 (Cytarabine) | AUC (Zibotentan) | pIC50 (Zibotentan) | AUC (GSK269962A) | pIC50 (GSK269962A) | AUC ((5Z)-7-Oxozeaenol) | pIC50 ((5Z)-7-Oxozeaenol) | AUC (MPS-1-IN-1) | pIC50 (MPS-1-IN-1) | AUC (CHIR-99021; [1]) | pIC50 (CHIR-99021; [1]) | AUC (CHIR-99021; [2]) | pIC50 (CHIR-99021; [2]) | AUC (KU-55933) | pIC50 (KU-55933) | AUC (QL-X-138) | pIC50 (QL-X-138) | AUC (CP466722) | pIC50 (CP466722)
CAL-78 (chondrosarcoma, adherent) | 0.984 | < 5.99 | 0.976 | < 6.29 | 0.986 | < 5.30 | 0.734 | 6.19 | 0.983 | < 4.70 | 0.9 | < 5.30 | 0.769 | 5.37 | 0.897 | < 4.70 | 0.915 | < 5.59 | 0.95 | < 5.00 | 0.982 | < 5.00 | 0.981 | < 4.99 | 0.986 | < 4.80
CAL-85-1 (breast, adherent) | 0.966 | < 5.99 | 0.332 | 8.02 | 0.976 | < 5.30 | 0.853 | < 5.70 | 0.976 | < 4.70 | 0.979 | < 5.30 | 0.666 | 5.68 | 0.834 | 4.73 | 0.873 | < 5.59 | 0.951 | < 5.00 | 0.964 | < 5.00 | 0.64 | 5.76 | 0.76 | 5.15
CAL-120 (breast, adherent) | 0.98 | < 5.99 | 0.511 | 7.46 | 0.981 | < 5.30 | 0.808 | 5.85 | 0.975 | < 4.70 | 0.677 | 5.94 | 0.574 | 5.97 | 0.934 | < 4.70 | 0.971 | < 5.59 | 0.936 | < 5.00 | 0.962 | < 5.00 | 0.59 | 5.92 | 0.791 | 5.02
CCF-STTG1 (glioma, adherent) | 0.93 | < 5.99 | 0.435 | 7.67 | 0.988 | < 5.30 | 0.795 | 6.03 | 0.984 | < 4.70 | 0.874 | 5.31 | 0.874 | 5.01 | 0.96 | < 4.70 | 0.986 | < 5.59 | 0.977 | < 5.00 | 0.984 | < 5.00 | 0.731 | 5.53 | 0.987 | < 4.80
CCK-81 (large intestine, adherent) | 0.989 | < 5.99 | 0.854 | 6.44 | 0.99 | < 5.30 | 0.955 | < 5.70 | 0.988 | < 4.70 | 0.989 | < 5.30 | 0.918 | < 5.00 | 0.921 | < 4.70 | 0.979 | < 5.59 | 0.973 | < 5.00 | 0.986 | < 5.00 | 0.899 | < 4.99 | 0.774 | 5.23
CHL-1 (melanoma, adherent) | 0.984 | < 5.99 | 0.252 | 8.19 | 0.968 | < 5.30 | 0.798 | 6.05 | 0.987 | < 4.70 | 0.772 | 5.74 | 0.421 | 6.41 | 0.913 | < 4.70 | 0.985 | < 5.59 | 0.986 | < 5.00 | 0.856 | 5.14 | 0.501 | 6.19 | 0.784 | 5.20
CHP-212 (neuroblastoma, adherent) | 0.976 | < 5.99 | 0.231 | 8.24 | 0.943 | < 5.30 | 0.262 | 7.55 | 0.979 | < 4.70 | 0.789 | 5.69 | 0.228 | 6.96 | 0.988 | < 4.70 | 0.988 | < 5.59 | 0.84 | 5.21 | 0.905 | < 5.00 | 0.871 | 5.08 | 0.672 | 5.54
CHSA0011 (chondrosarcoma, adherent) | 0.939 | < 5.99 | 0.884 | < 6.29 | 0.98 | < 5.30 | 0.846 | < 5.70 | 0.96 | < 4.70 | 0.801 | 5.43 | 0.579 | 5.95 | 0.979 | < 4.70 | 0.943 | < 5.59 | 0.894 | < 5.00 | 0.979 | < 5.00 | 0.79 | 5.17 | 0.89 | < 4.80
CHSA0108 (chondrosarcoma, adherent) | 0.982 | < 5.99 | 0.639 | 7.08 | 0.978 | < 5.30 | 0.712 | 6.26 | 0.978 | < 4.70 | 0.71 | 5.87 | 0.444 | 6.37 | 0.943 | < 4.70 | 0.927 | < 5.59 | 0.944 | < 5.00 | 0.949 | < 5.00 | 0.924 | < 4.99 | 0.884 | < 4.80
CHSA8926 (chondrosarcoma, adherent) | 0.959 | < 5.99 | 0.941 | < 6.29 | 0.98 | < 5.30 | 0.908 | < 5.70 | 0.958 | < 4.70 | 0.8 | 5.43 | 0.702 | 5.53 | 0.98 | < 4.70 | 0.976 | < 5.59 | 0.744 | 5.37 | 0.972 | < 5.00 | 0.913 | < 4.99 | 0.862 | < 4.80
